Assay results: the supplement of paper PMC11417369
± gives the standard deviation of the averaged measurements. Some of the results follow.

tested on: PfAP2-G AP2 domain (GST-tagged); test: gcPBM binding intensity (ln(normalized median fluorescence intensity)); higher = stronger DNA binding
Method in brief: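 Plasmodium falciparum DNA-binding domains carrying a GST tag were expressed in E. coli and applied for 1 h, at about 25 μg on average, to an Agilent 4 × 180k array. The array held primer-extended double-stranded 36-bp intergenic genomic probes together with negative controls, and binding took place in 1× PBS with 1% milk, 0.2 mg/ml BSA, 0.5% salmon testes DNA and 0.03% Triton X-100. An Alexa488 anti-GST antibody detected bound protein, and the array was scanned at 488 nm. Binding intensity is taken as the highest Masliner-normalised natural-log median intensity across replicate spots of either probe orientation.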

Sequence | gcPBM binding intensity (ln)
TTGTACATCTTTTGCACACGTAATGTTATTATAATA [CACACA_site1258] | 11.3 ± 0.92
TTATAACTTTTGAGCACACACAAGCATATAAATATA [CACACA_site6933] | 10.2 ± 0.16
TCATTTTTTTGTTTGGTGCGACTTGAAAATTTGATT | 10.4 ± 0.28
CTCAATATTATTACTACACACAAATTAAAATTTTCC [CACACA_site4203] | 10.07 ± 0.085
CATACATTTAAAAAGTGTACGTATATGAAAAAAGGA [XGTACX_site6512] | 11.7 ± 1.1
ACCTTTGTAGTTGGTCCACACACATATATGGAAGAA [CACACA_site8351] | 11.4 ± 0.99
ACATATATATAATATATATATCATCATATTTTCTTA [CACACA_negctrl_site853] | 9.76 ± 0.085
TGTGTGTGTATATGTGTGCACATATAAAATAGAAGA [GTGCAC_site9714] | 10.8 ± 0.6
ATATGTGTTATTTATACATGCAGAAGAATATCTATT [TGCATGCA_site828] | 10 ± 0.13
ACATATACAAAACACACACACAACGTTTTAATAAAT [CACACA_site1979] | 10.2 ± 0.21
GTATATAAAAATTCATGTACATATTATTATTTTTAA [XGTACX_site658] | 11.3 ± 0.71
AGAGAATAAATATAAAGTACATATATAAATATATAT [XGTACX_site5055] | 11.2 ± 0.9
TTGAGTTGTATAAAAAGTACAAGGTTTTAACTAAAT [XGTACX_site1447] | 11.4 ± 0.59
TTATAATATTCATAAGGTACAGTTTATATATGTTAT [XGTACX_site8442] | 10.9 ± 0.58
TATATGTAAATGGACACACACATATATATATATATA [CACACA_site3659] | 10.8 ± 0.59
TATGACCTTAGTAATTGTACACAAACATATTAATAT [XGTACX_site3340] | 11.3 ± 0.7
GAGTATATGATATATATATATATATAAAAAAAAAAA [GTGCAC_negctrl_site99] | 9.59 ± 0.3
AATAATCATGATCAAAGTACGTATGATTAAAAAAAA [XGTACX_site4916] | 10.9 ± 0.5
ATATATATATATATATGTACATATTATTATTTTGAT [XGTACX_site4752] | 11.2 ± 0.73
ATATATATAATAAACACACACATATACATAGATGTA [CACACA_site5841] | 9.805 ± 0.007
ATATAGATTCGACACACACACAAAAAAAAAAAAAAA [CACACA_site7677] | 10 ± 0.47
GTACCTATTTCATACACACACACACGCAAACAAACA [CACACA_site6590] | 10.7 ± 0.45
TGGTATATTATTTTTTGTACACATAAATGAAACATT [XGTACX_site5345] | 11.3 ± 0.79

Sequence | gcPBM binding intensity (ln)
CGTATATCACCAACTAGTACATATAAATAAATAAAT [XGTACX_site8837] | 10.9 ± 0.71
ATATATATTATATGCACACTAATAAGACTATTTAAA [CACACA_site3554] | 10.1 ± 0.23
GTATATGTACTATACGCACACACACCCACATATATA [CACACA_site9062] | 11.1 ± 0.67
CATTTGCCCAGGCACACACACATAAAAAGAAAAATA [CACACA_site356] | 10.2 ± 0.28
AATGAAAGGATGCTGTGTACATATATATATATATAT [XGTACX_site7901] | 11.2 ± 0.64
TATAAAAATATTTCTACACACATTAAAATATATATA [CACACA_site4770] | 9.845 ± 0.064
AAGAAAATTGTCTGAAGTACAAAACATTAATAATAT [XGTACX_site4864] | 11.2 ± 0.78
AATTTAATATAATGCACACATAAAAAAAAAAAATTC [CACACA_site1504] | 10 ± 0.23
AGCTTGTGGATGCAGGTGCTACATTTGTTCTATAAT [GTGCAC_site9645] | 10.01 ± 0.014
TGGTCTTTTAAACAAAAATATAAATTTTTAAATATG [CACACA_negctrl_site392] | 9.94 ± 0.23
AAGATAAATTATTATAAATCAATTGTGCCAACAATA [CACACA_negctrl_site144] | 10.1 ± 0.18
TATATATATATATAAGCACACAAACAAAAAAAATTA [CACACA_site9293] | 10.3 ± 0.35
GGTTATTTCACAGAATGTACTTATTATATATAAAAT [XGTACX_site8886] | 11.1 ± 0.79
TTTTTTTTGTGTTCAAGTACAAAATTTTAAAGGTCA [XGTACX_site4011] | 10.9 ± 0.55
TGTTATAAGATTTATGTACACACATATACACCCCTC [CACACA_site8141] | 11.6 ± 0.88
TATATATATATATGTATGCACTTTAATTTTATAAGG | 10.3 ± 0.61
TATATATGTATATATACACACAACGGTTATAAATAT [CACACA_site1128] | 10.09 ± 0.021
GATCCATTATTGATCCGTACTTATTCATGTTATATA [XGTACX_site5946] | 10.8 ± 0.45
AAGATTAGGTTAATTAGTACTTATTATATTGTAATG [XGTACX_site3653] | 10.9 ± 0.35
AATATAAATAAAAACACACACACACCGATATATATA [CACACA_site5283] | 10.1 ± 0.3
CTTGTACCTAGAAATACACACAATTCTATAACTTAT [CACACA_site7355] | 10.9 ± 0.69
TAATTTTTTTTAATAACACACATATAAATATAAATA [CACACA_site6521] | 10.1 ± 0.35
CATTTGCACCCGCACACACACATAAAAAGAAAAATA [CACACA_site4350] | 10.5 ± 0.61

Sequence | gcPBM binding intensity (ln)
CATATTATTATTTTGGTGCATACTTATATATATTTT | 10.2 ± 0.18
GTACCTATTTCATACACACACACACCCAAACAAACA [CACACA_site976] | 10.7 ± 0.51
GAAACAATTTGATATTGTACATAAATAAATAAAAAC [XGTACX_site8869] | 11 ± 0.54
AACATTGATAAATATAAACACACGAAAACAGACATA [CACACA_site490] | 10.2 ± 0.18
GTTTTATTTTCAATGTGTACTTATTATTTGATATAC [XGTACX_site6402] | 11.6 ± 1.1
AATGTGTAGACACGCACACACAAAAAAATATATATA [CACACA_site5595] | 10 ± 0.18
AATGTAGAAATGGGTGCACACACATATATAATATAT [CACACA_site8799] | 10.8 ± 0.68
TTTTGTAATGTGAATATTTGTATATTATTTGTATAT [CACACA_negctrl_site1677] | 9.79 ± 0.028
ACATTCTATCTAAGTACACACATTAATTTTTTTTTT [CACACA_site4106] | 11.4 ± 0.78
TACTTATATTGAAATGGTACAGATAAAAAAAAAAAA [XGTACX_site1407] | 10.7 ± 0.64
AATTTACATATATATTGTACATTTATGTATATATAT [XGTACX_site4186] | 10.7 ± 0.52
TAATATTTTTTGTGTACACATATATATATATATATA [CACACA_site5504] | 11.7 ± 0.88
TTTATATTATACGCACTAATATATATATATATATAT [TGCATGCA_negctrl_site47] | 10.3 ± 0.38
ATATAACACAAGGGCACACATATACCTTTCCTTTTT [CACACA_site412] | 10.4 ± 0.2
AATTAGATGGATAAATGTACATATGTGAATATATTT [XGTACX_site85] | 10.9 ± 0.42
GTGCCCTTTTTAATAACATGCAAATAACATATTTAT [TGCATGCA_site709] | 10.1 ± 0.18
AAAAAAAAAAAAAACACACAAACATCAAATTATTAT [CACACA_site1838] | 9.91 ± 0.028
AATTTCTTCTTAGGGTGTACAATTTGACATAAGGAA [XGTACX_site1773] | 11.3 ± 0.74
GTAATATATATTAAGTAATAGTTTATCTTAGGAAAA [TGCATGCA_negctrl_site302] | 9.76 ± 0.028
ATATATATATATTGTACACACATTTATGCATATATA [CACACA_site5738] | 11.4 ± 0.63
TTTTTTTGCATTTCATGTACATATATTGAGCTTAAA [XGTACX_site8485] | 11.3 ± 0.76
TTTAAATATATATATTGTACAAAAAAAAATAATAAA [XGTACX_site4759] | 10.9 ± 0.41
ATAAAATTTATGACTTGTACATGTAAATAAAATATA [XGTACX_site762] | 11.1 ± 0.73

Sequence | gcPBM binding intensity (ln)
TGTAGAACTCAATATTGTACATTATATAAAATGGGA [XGTACX_site3857] | 10.8 ± 0.45
TTCCCTATCTTTTCAGTGCATTTTGTTTCCTACCTT [GTGCAC_site9813] | 10.2 ± 0.11
CTTCTTGTAAAATTTGCATGTAATTAAAAGAGAATG [TGCATGCA_site484] | 10.2 ± 0.3
GCCTTTTAGTATTTCACACACGTAAATGAGTATATC [CACACA_site4748] | 10.2 ± 0.18
AAAAAATTAAAAATCACACATAAATATATATAAAAA [CACACA_site4192] | 9.64 ± 0.27
TAATGAAGCTTATGCACACGTTCATTATTTATATTA [CACACA_site3219] | 9.98 ± 0.028
ATAAAGAATATAAATACACACTTAAATATAGATTAT [CACACA_site7804] | 9.79 ± 0.14
ATTGGTTCCCCTCTCTTTTCAATATATTTTTTTTTT [XGTACX_negctrl_site259] | 10.2 ± 0.27
GATATAGGGCGTATGTTAATCGTGAAAGAGTGTCTT [GTGCAC_negctrl_site102] | 10.2 ± 0.14
TTCAAATGATTTATGTGTACATAAAATTATTTTTTA [XGTACX_site107] | 11.5 ± 1.1
ATATTACAGTACAATACATGCATATGGAAAAAAAAA [TGCATGCA_site72] | 11 ± 0.79
AATAAATATATATTCACACACAAACATATATATATA [CACACA_site4023] | 10.1 ± 0.45
TTTATAATTTATATCACACACATATATATATAGTAA [CACACA_site8] | 9.88 ± 0.12
AAATAAATAAATAAATAAACAAATATGTATAAATGG [XGTACX_negctrl_site153] | 9.92 ± 0.014
AGGTACTTTTTTAAAACACACATATAATAAATACAC [CACACA_site4730] | 11.3 ± 1.1
CATTTTGTTTTAAAGTGTACATTATGTAATATAAAA [XGTACX_site647] | 11.3 ± 0.82
ATTTATATTACCCTTGCATGTAGGTGCAATTTTTTT [TGCATGCA_site757] | 10.2 ± 0.19
TTTTTATAGGTAAAAACACACGCTAAAAATAATTAA [CACACA_site3731] | 10.2 ± 0.13
TTTTTTAGATTACATAAATATAAATATAAATATATA [GTGCAC_negctrl_site459] | 9.485 ± 0.092
ATAAGATTAAACATTGCACACAGAAATATATTTTCT [CACACA_site8743] | 9.93 ± 0.15
